Data reported in ChEMBL document CHEMBL4888484, “Replenishing the malaria drug discovery pipeline: Screening and hit evaluation of the MMV Hit Generation Library 1 (HGL1) against asexual blood stage Plasmodium falciparum ,using a nano luciferase reporter read-out” (2022).
About 410 (8.5%) of roughly 4,800 compounds showed an effect of 50% or more. The list shows a part of the results.

System: Plasmodium falciparum
Assay: Confirmatory screen in NF54 pLDH assay, in single point, at 2uM, 72h
Format: functional, Erythrocyte
Conditions: timepoint 72 hour

SMILES | % Inhibition [%]
COc1cccc(-c2nc3n(c2C(=O)Nc2cccc(Cl)c2)CCS3(=O)=O)c1 | 5
O=C1\N=C(c2ccc(Cl)cc2)/N=N\C(c2ccc(Cl)cc2)=N/[C@]1(O)C(F)(F)F | -18
Cc1cc(OCc2ccc(Br)cc2)c(C)cc1CN1CCOCC1 | 14
Cc1ccccc1N1CCN(C(=O)CCC2CCN(c3cc(NC4CC4)ncn3)CC2)CC1 | -10
Cc1nc(NCc2coc3ccccc23)n(C)n1 | -5
CCN(CC)c1ccc(C(=O)Nc2ccc3nc(N4CCCC4)cc(C)c3c2)cc1 | 93
Cc1nccn1-c1ncc(NC(=O)Nc2ccc3c(c2)OCO3)cn1 | 14
O=C(C[C@H]1CCOC1)Nc1cc2ccc(Br)cn2n1 | 11
O=C(N[C@@H](N1CCCCCC1)C(Cl)(Cl)Cl)c1cccc(Cl)c1 | -20
COCCNc1ccc(S(N)(=O)=O)cc1N | 5
O=C(NCc1ccc(N2CCCC2=O)cc1)c1cnc2n1CCCC2 | -11
CCc1ccc(S(=O)(=O)N2CCn3c(nnc3[C@H]3CCN(C(C)C)C3)C2)cc1 | 9
COc1ccc(CN2CC(C)OC3(CCOC3)C2)cc1Cl (configuration not stated) | 6
COc1ccccc1Cc1nnc2n1CCCC2 | 8
Cc1cc(C(=O)NCC[C@H](C)n2nc(C)cc2C)c2c(-c3ccc(F)cc3)noc2n1 | -25
Cn1cc(Cl)c(C(=O)Nc2cccc(S(=O)(=O)N3CCOCC3)c2)n1 | 13
COCCOCC(=O)Nc1cc(Cl)c(C)cc1Br | 9
CCc1cc(C(=O)N2CCCCC2)c2c(C)nn(-c3ccc(OC)cc3)c2n1 | 10
CN(C)S(=O)(=O)c1cc(C(=O)N2CCCO2)co1 | 7
Cc1nn(C)cc1NC(=O)N[C@H]1CCCC[C@@H]1O | -6
COc1ccc2c(c1)CCN2S(=O)(=O)c1ccc2c(c1)OCCO2 | -4
CCc1c2c(=O)n(-c3nc4ccccc4s3)[nH]c2cc(=O)n1CCCN1CCOCC1 | 29
CN(Cc1ccc(F)cc1Cl)[C@H]1CCc2nnc(C3CCOCC3)n2CC1 | -4
Cc1ccc(C(=O)C[n+]2cc(-c3ccc(Br)cc3)n(C)c2N)cc1 | -16
Cc1onc(C(=O)NCc2cnn(C)c2C)c1COc1cccc(C(F)(F)F)c1 | -4
N/C(CC(=O)Nc1cccc(Cl)c1)=N/O | 10

SMILES | % Inhibition [%]
Nc1nc(-c2ccccc2)c2cc3c(nn12)C[C@H](c1ccc(F)cc1)CC3=O | -6
Cn1nc(N)c2cc(C3OCCCO3)ccc21 | -9
CC(C)(C)Nc1nc2nonc2nc1NC1CCCCC1 | 6
CCNc1nc(C)cc(Nc2ccc(NS(=O)(=O)c3c(C)noc3C)cc2)n1 | 100
CC(C)c1cc(=O)[nH]c(-n2nc(C3CC3)cc2NC(=O)Cc2ccc(Cl)cc2)n1 | 67
Cc1c(N[C@@H](C)C2CCOCC2)cccc1C(N)=O | 10
Cc1c(NC(=O)CC(C)(C)CC(=O)N2CCN(c3ccccc3F)CC2)c(=O)n(-c2ccccc2)n1C | 9
Cc1ncsc1C=Cc1ncc(C(=O)O)c(C(C)C)n1 | -14
Cc1nn(C2CCCC2)c2nc(-c3cc(CN(C)C)cs3)[nH]c12 | -5
Cn1c(-c2ccccc2)cn2cc(-c3ccc(Cl)cc3)nc12 | 13
CNCCCNC(=O)c1ccc(Br)cc1C | 10
N[C@@H](C(=O)Nc1nnc(Cc2ccsc2)s1)c1ccccc1 | 13
Cc1cc2sc(-c3ccccc3)c([O-])[n+]2cn1 | 10
Cc1ccnc(N[C@H](c2cccs2)c2cc(C)sc2NC(=O)c2ccccc2)c1 | 11
CNC(=O)[C@H]1CN(S(=O)(=O)c2cccs2)CC12CCCCC2 | -30
Cc1cc(NC(=O)Cn2c(=O)n(CC(C)C)c(=O)c3sccc32)no1 | -24
O=C(NCCCn1cccn1)c1cncc(Br)c1 | -3
CN(C)c1noc(CN2CCc3ccc(F)cc3C2)n1 | 41
CC[C@H]1Cn2c(C(=O)NC3CCCCC3)cc3c(Cl)ccc(c32)O1 | -2
CC1(C)CC[C@H](CNC(=O)c2cnn(-c3ccc(F)cc3)n2)O1 | 9
CCOCCCNC(=O)c1ccc(-c2ccc3c(c2)CCN3C(C)=O)cc1 | 12
CCn1nccc1CN(CCc1ccc(OC)c(OC)c1)S(=O)(=O)c1cnn(CC)c1C | 2
COc1cccc(CNCCCN2CCOCC2)c1OCc1ccc(F)cc1Cl | 1
Cc1cc(Cl)c2c(c1)C1(NC(CCC(=O)O)[C@H]3C(=O)N(C4CCCCC4)C(=O)[C@H]31)C(=O)N2 (some centres not stated) | -10
Cc1ccc(Cn2ccnc2C(=O)Nc2ccccc2)cc1 | -12
COc1nccnc1N(C(C)=O)S(=O)(=O)c1ccc(NC(C)=O)cc1 | -4

SMILES | % Inhibition [%]
O=C(NCCc1cccnc1)OCC(F)(F)F | -19
NC(=O)c1ccc(NC(=O)N2CCC[C@H](c3cc(F)ccc3F)C2)cc1F | -16
COc1ccc(-c2[nH]ncc2C(=O)NCC2CCCCC2)cc1OC | 6
Cc1ccc(Cc2nc(N3CCCN(C(=O)c4ccc(C)cc4)CC3)c3cnn(-c4ccccc4)c3n2)cc1 | 11
CCc1cc(N2CC[C@H]3[C@H](CCC(=O)N3CCCCO)C2)nc(C)n1 | -10
COc1ccc(NC(=O)CCC(=O)NCc2ccco2)cc1 | 15
CC(C)(C)OC(=O)N1CCCC(C(O)C(F)(F)F)C1 (configuration not stated) | 9
CCOC(=O)c1c[nH]c2c(-c3ccccc3)nsc2c1=O | 3
CN1c2cc(C(=O)N3CCN(c4ccccc4Cl)CC3)ccc2C(=O)N2CCCC[C@H]21 | 5
CC1(C)C(=O)NCCN1C(=O)c1ccc2nccnc2c1 | 9
COc1cc([C@@H]2C=C(c3ccc(Cl)cc3)Nc3ncnn32)ccc1OCc1ccc(Cl)cc1 | 4
CC(=O)N(CCN1CCOCC1)[C@H]1CCN(S(=O)(=O)c2cccc(Cl)c2)C1 | 9
Clc1cccc(N2CCN(Cc3ccc(OC4CCNCC4)cc3)CC2)c1 | 14
Cc1cc(Br)cc(N[C@H](c2cccnc2)c2ncc[nH]2)c1 | 6
CC(C)c1ccc([C@H](C(=O)Nc2ccc3c(c2)OCO3)N(Cc2ccccc2)C(=O)Cn2nnc3ccccc32)cc1 | -6
Cc1cccc(CN2C(=O)[C@@H]3CCCN3c3ccc(C#N)cc32)c1 | 7
CCc1ccc(CN2CCN(Cc3cccc(Oc4ccccc4)c3)CC2)cc1 | 8
CCN1CCC(CCNC(=O)c2cc3c(s2)N(CC)CCCC3)CC1 | -12
Cc1cc(NC(=O)Cn2ncnc2-c2cccc(C#N)c2)n(C)n1 | 10
Cc1nc([C@H]2CC(=O)N(c3ccccc3)C2)no1 | -16
COc1ccc2nc(O)c(C(=O)Nc3ccc4c(c3F)CCNC4)cc2c1 | 101
COc1cc(C(=O)Nc2ccc(Oc3cccc4[nH]ccc34)nc2)cc2c1OCCCO2 | 6
Cc1c(CCO)c(=O)n(C)n1C(=O)c1ccc(Cl)cc1 | 9
Cn1c(=O)c2c(-c3ccc(Cl)cc3)n(-c3cccc4cccc(N)c34)cc2n(C)c1=O | 91
CN1N=C(C(=O)NCc2ccccn2)CCC1=O | 11
CCc1ccc2c(c1)c(-c1ccc(Cl)cc1)c(C(=O)N1CCN(c3cccc(Cl)c3)CC1)n2C | -23

SMILES | % Inhibition [%]
COC(=O)Nc1ccc(Cl)cc1F | 0
COc1ccc(CN(c2ccccc2)S(=O)(=O)c2ccc3nncn3c2)cc1 | 15
Cn1c(N2CCN(Cc3ccc4c(c3)OCO4)CC2)cc(=O)n(C)c1=O | -5
CN1CCN(Cc2cc3cc4c(cc3nc2-c2ccc(Cl)cc2)OCO4)CC1=O | 51
COc1cccc(N2CCN(C3=NC(=O)[C@@H](C#N)C4(CCCC4)N3)CC2)c1 | 3
Cc1cccnc1C(=O)N1CC(n2cnnc2[C@@H]2CCCO2)C1 | -4
Cc1cccc(NC(=O)CS(=O)(=O)Cc2cc(Cl)cc3c2OCOC3)c1C | -18
COc1ccc(CN2C(=O)c3cc4ccc(OC)cc4n3C[C@]2(C(=O)NC2CCCCCCC2)c2ccccc2)cc1 | -12
COc1cccc(N2CCN(C(=O)c3cn4cc(-c5ccc(Cl)cc5)ccc4n3)CC2)c1 | 2
O=C(Nc1ccsc1C(=O)NC1CCCCC1)c1cnccn1 | 11
Cc1nn(C)cc1S(=O)(=O)N1CCC[C@@H]1CCc1ccccn1 | -22
Cc1ccccc1NC(=O)c1cnn2c3c(cnc12)CCCCCC3 | 14
O=C(Nc1ccccc1)C1=NN(CC(=O)N2CCCCC2)C(=O)CC1 | -1
O=C(NC1CCCNC1=O)NC1CCCC1c1ccc(Cl)cc1 (configuration not stated) | 10
CC(C)c1ccc(N2CCN(C(=O)c3ccc(C(F)(F)F)cc3)[C@@H](C)C2=O)cc1 | 8
Cc1nc2c(c(=O)[nH]1)NC(=O)[C@H](CC(C)C)N2 | 0
NC(=O)c1cccc(CNc2ccc(-n3cncn3)c(Cl)c2)c1 | 7
O=c1[nH]c2cc(Cl)c(S(=O)(=O)Cl)cc2[nH]1 | 6
Cc1cc(C(=O)NCCCS(N)(=O)=O)c(Cl)cc1F | -7
C=CCN1C(=O)OC(C)(CCC=C(C)C)C1(C)O (configuration not stated) | 14
O=C(CNC(=O)COc1ccccc1)NCC1(O)CCCCCC1 | 6
CCOc1ccc(NC(=O)N(Cc2cn(C)c3ccccc23)C2CCCCC2)cc1 | -14
CCOc1ccc(-n2c(CN3CCN(C(=O)c4ccco4)CC3)nc3ccccc3c2=O)cc1 | 14
C#CCNC(=O)[C@H](C#N)c1nc(C)c(C)s1 | 10
